# Some of the results follow.
# B1: Si Bti9 1b-V5-his (Solanum lycopersicum) (protein)
# chain: MQCNRGCDLALASFYVWRGSNLTLISEMFSTSIADIVSYNNRDNIPNQDSVIAGTRINIPFRCDCLNDGEVLGHAFPYRVKSGDTYDLVARNYSDLTTAQWMMKFNSYPENNIPNTVNLSVVVNCSCGNSDVSKDFGLFVTYPVRAEDNLTSVASAANVSEDIIRRYNPAAVSILDIGQGIIYIPGRDRNGNFPPLPTSTDGLSGGAKKGGRADPAFLYKVVINSKLEGKPIPNPLLGLDSTRTGHHHHHH
# Experiments:
# Test in all cases: glycan array binding signal (z-score within array); higher = stronger binding
# Conditions in all cases: glycan notation: IUPAC condensed, linker removed
# Neu5Ac(a2-8)Neu5Ac = target: Neu5Ac(a2-8)Neu5Ac
# Outline: (§1)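 The Consortium for Functional Glycomics database supplied 3228 glycan arrays, of which those lacking an available protein sequence were dropped. The binding signal, a within-array Z-score, was averaged across arrays of the same protein sequence and across linkers. Negative scores can be read as non-binding.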
# [1] = target: Neu5Ac(a2-8)Neu5Ac(a2-3)Gal(b1-3)GalNAc(b1-4)[Neu5Ac(a2-3)]Gal(b1-4)Glc
# Outline: as §1
# [2] = target: Neu5Ac(a2-8)Neu5Ac(a2-3)Gal(b1-3)GalNAc(b1-4)[Neu5Ac(a2-8)Neu5Ac(a2-3)]Gal(b1-4)Glc
# Outline: as §1
# [3] = target: Neu5Ac(a2-8)Neu5Ac(a2-3)Gal(b1-4)Glc
# Outline: as §1
# [4] = target: Neu5Ac(a2-8)Neu5Ac(a2-3)Gal(b1-4)GlcNAc
# Outline: as §1
# [5] = target: Neu5Ac(a2-8)Neu5Ac(a2-3)[Gal(b1-3)GalNAc(b1-4)]Gal(b1-4)Glc
# Outline: as §1
# [6] = target: Neu5Ac(a2-8)Neu5Ac(a2-3)[GalNAc(b1-4)]Gal(b1-4)Glc
# Outline: as §1
# [7] = target: Neu5Ac(a2-8)Neu5Ac(a2-8)Neu5Ac
# Outline: as §1
# [8] = target: Neu5Ac(a2-8)Neu5Ac(a2-8)Neu5Ac(a2-3)Gal(b1-4)Glc
# Outline: as §1
# [9] = target: Neu5Ac(a2-8)Neu5Ac(a2-8)Neu5Ac(a2-3)[Gal(b1-3)GalNAc(b1-4)]Gal(b1-4)Glc
# Outline: as §1
# [10] = target: Neu5Ac(a2-8)Neu5Ac(a2-8)Neu5Ac(a2-3)[GalNAc(b1-4)]Gal(b1-4)Glc
# Outline: as §1
# [11] = target: Neu5Ac(a2-8)Neu5Ac(a2-8)Neu5Ac(a2-8)Neu5Ac(a2-3)[GalNAc(b1-4)]Gal(b1-4)Glc
# Outline: as §1
# [12] = target: Neu5Ac(a2-8)Neu5Gc(a2-3)Gal(b1-4)GlcNAc
# Outline: as §1
# [13] = target: Neu5Ac(b2-6)Gal(b1-4)GlcNAc
# Outline: as §1
# Neu5Ac(b2-6)GalNAc = target: Neu5Ac(b2-6)GalNAc
# Outline: as §1
# [14] = target: Neu5Ac9Ac(a2-3)Gal(b1-3)GlcNAc
# Outline: as §1
# [15] = target: Neu5Ac9Ac(a2-3)Gal(b1-4)GlcNAc
# Outline: as §1
# [16] = target: Neu5Ac9Ac(a2-6)Gal(b1-4)GlcNAc
# Outline: as §1
# [17] = target: Neu5Gc(a2-3)Gal(b1-3)GlcNAc
# Outline: as §1
# [18] = target: Neu5Gc(a2-3)Gal(b1-3)[Fuc(a1-4)]GlcNAc
# Outline: as §1
# Neu5Gc(a2-3)Gal(b1-4)Glc = target: Neu5Gc(a2-3)Gal(b1-4)Glc
# Outline: as §1
# [19] = target: Neu5Gc(a2-3)Gal(b1-4)GlcNAc
# Outline: as §1
# [20] = target: Neu5Gc(a2-3)Gal(b1-4)GlcNAc(b1-3)Gal(b1-4)GlcNAc(b1-2)Man(a1-3)[Neu5Gc(a2-3)Gal(b1-4)GlcNAc(b1-3)Gal(b1-4)GlcNAc(b1-2)Man(a1-6)]Man(b1-4)GlcNAc(b1-4)GlcNAc
# Outline: as §1
# [21] = target: Neu5Gc(a2-3)Gal(b1-4)[Fuc(a1-3)]GlcNAc
# Outline: as §1
# [22] = target: Neu5Gc(a2-6)Gal(b1-4)GlcNAc
# Outline: as §1
# Neu5Gc(a2-6)GalNAc = target: Neu5Gc(a2-6)GalNAc
# Outline: as §1
# [23] = target: Neu5Gc(a2-8)Neu5Ac(a2-3)Gal(b1-4)GlcNAc
# Outline: as §1
# [24] = target: Neu5Gc(a2-8)Neu5Gc(a2-3)Gal(b1-4)GlcNAc
# Outline: as §1
# [25] = target: Neu5Gc(a2-8)Neu5Gc(a2-3)Gal(b1-4)GlcNAc(b1-3)Gal(b1-4)GlcNAc
# Outline: as §1
# [26] = target: Neu5Gc(a2-8)Neu5Gc(a2-6)Gal(b1-4)GlcNAc
# Outline: as §1
# [27] = target: Neu5Gc(b2-6)Gal(b1-4)GlcNAc
# Outline: as §1
binder,measurement,setting,value
B1,glycan array binding signal (z-score),Neu5Ac(a2-8)Neu5Ac,-0.231
same,glycan array binding signal (z-score),[1],-0.338
same,glycan array binding signal (z-score),[2],-0.186
same,glycan array binding signal (z-score),[3],-0.192
same,glycan array binding signal (z-score),[4],-0.343
same,glycan array binding signal (z-score),[5],-0.341
same,glycan array binding signal (z-score),[6],-0.076
same,glycan array binding signal (z-score),[7],-0.323
same,glycan array binding signal (z-score),[8],-0.253
same,glycan array binding signal (z-score),[9],-0.135
same,glycan array binding signal (z-score),[10],-0.31
same,glycan array binding signal (z-score),[11],-0.164
same,glycan array binding signal (z-score),[12],-0.378
same,glycan array binding signal (z-score),[13],-0.175
same,glycan array binding signal (z-score),Neu5Ac(b2-6)GalNAc,-0.242
same,glycan array binding signal (z-score),[14],0.81
same,glycan array binding signal (z-score),[15],-0.341
same,glycan array binding signal (z-score),[16],0.222
same,glycan array binding signal (z-score),[17],-0.159
same,glycan array binding signal (z-score),[18],0.102
same,glycan array binding signal (z-score),Neu5Gc(a2-3)Gal(b1-4)Glc,-0.216
same,glycan array binding signal (z-score),[19],-0.319
same,glycan array binding signal (z-score),[20],-0.126
same,glycan array binding signal (z-score),[21],-0.132
same,glycan array binding signal (z-score),[22],-0.094
same,glycan array binding signal (z-score),Neu5Gc(a2-6)GalNAc,-0.239
same,glycan array binding signal (z-score),[23],-0.395
same,glycan array binding signal (z-score),[24],-0.387
same,glycan array binding signal (z-score),[25],-0.317
same,glycan array binding signal (z-score),[26],-0.311
same,glycan array binding signal (z-score),[27],-0.257

# From the supplement of paper PMC8728848
